Source: PubChem BioAssay AID1671194 (National Center for Advancing Translational Sciences (NCATS), 2021)
The campaign covered roughly 140,000 compounds. About 240 (0.17%) were called active. This list was built around the results that the source calls inconclusive (neither active nor inactive); the mix of calls is not that of the screen. The call rests on the fitted dose curve; in most records, active means well fitted inhibition curve with a large enough effect; inconclusive means small, poorly fitted or top-dose-only effect; inactive means no such curve, though single readings can be large or run the other way. Potencies beside an inconclusive call are fits to weak or partial responses and may not hold up.

Experiment: Primary qHTS assay for inhibitors of alpha-synuclein gene (SNCA) expression; further: nearly all actives have a fitted effect of over 45% in size
Conditions: HEK-293 SNCA-luciferase knock-in, luminescence, 24 h; series mostly up to 57.2 µM
Potency means the concentration at half of the fitted maximal effect; tags describe the fitted curve by direction and shape.

SMILES	Potency
COc1cccc(N2CCN(C(=O)c3ccc(CS(=O)c4cccc(Cl)c4)o3)CC2)c1 (stereo unspecified)	inconclusive: 35.5 µM [inhibitor, single point]
Cc1ccc(Nc2ccnc(N3CCC(NC(=O)C4CC4)CC3)n2)cc1	inconclusive: 11.2 µM [inhibitor, partial curve]
COc1ccc(NC(=O)CN(C)S(=O)(=O)c2ccc3[nH]c4c(c3c2)CCCC4)cc1OC	inconclusive: 28.2 µM [inhibitor, partial curve, poor fit]
Cc1ccncc1C(=O)N1CCC2(CC1)CC(N1CCN(c3ccccn3)CC1)CCO2 (stereo unspecified)	inactive
COc1ccc(Nc2ccnc(N3CCN(C(=O)Nc4ccc(Cl)cc4)CC3)n2)cc1	inconclusive: 1.12 µM [inhibitor, partial curve, poor fit]
CNC(=O)c1cccc(-c2cnc(Nc3ccncc3)c3c2CCO3)c1	inactive
COc1cccc(C(=O)CN2CCN(S(=O)(=O)c3ccc(Cl)cc3)CC2)c1	inconclusive: 28.2 µM [inhibitor, single point]
Cc1ccc(C2Cn3nnc(C(=O)N4CCC(C(=O)NC5CCCC5)CC4)c3CO2)cc1 (stereo unspecified)	inconclusive: 35.5 µM [inhibitor, single point]
Cc1ccccc1C(=O)N1CC(C(=O)NCCc2ccncc2)C2(CCOCC2)C1 (stereo unspecified)	inconclusive: 17.8 µM [inhibitor, single point]
CCc1nnc(NC(=O)c2nc(S(C)(=O)=O)ncc2Cl)s1	inconclusive: 39.8 µM [inhibitor, single point]
COc1cccc(Cc2nc3ccccc3nc2SCC(=O)N2CCCCC2C)c1 (stereo unspecified)	inconclusive: 39.8 µM [inhibitor, single point]
CCCn1cnc2c1CN(S(=O)(=O)c1cccc3c(N(C)C)cccc13)[C@H](C(=O)OC)C2	inconclusive: 17.8 µM [inhibitor, single point]
CC(=O)N1CCC(C2CCN(Cc3ccccc3F)C2)CC1 (stereo unspecified)	inconclusive: 39.8 µM [inhibitor, single point]
CN1C[C@H](C(=O)Nc2nccs2)C[C@H]1c1cccc(C(F)(F)F)c1	inconclusive: 6.31 µM [inhibitor, full curve]
CC(C)C(=O)N1CCCCCNC(=O)[C@@H]2CCCC[C@@H]21	inactive
O=C1NC(=NC2CCCCC2)C2(CCN(CC3CC3)C2)N1c1cccnc1 (stereo unspecified)	inconclusive: 1.78 µM [inhibitor, partial curve, poor fit]
CC(C)(CC(=O)O)CC(=O)N1Cc2[nH]cnc2C[C@H]1c1nc(Cc2ccccc2)no1	inactive
COc1cccc(CN2C[C@@H](F)[C@@H](OCc3nc4ccccc4[nH]3)C2)n1	inactive
COc1ccc(NS(=O)(=O)c2ccc3[nH]c4c(c3c2)CCCC4)c(OC)c1	inconclusive: 35.5 µM [inhibitor, single point]
Cc1cccc(-c2noc(-c3ccc(N4CCCC4)c([N+](=O)[O-])c3)n2)c1	inconclusive: 5.01 µM [inhibitor, partial curve, poor fit]
CN1C(=O)C2(CCN(Cc3ccccc3)C2)c2ccccc21 (stereo unspecified)	inactive

SMILES	Potency
CCN(C(=O)CN(C)S(=O)(=O)c1ccc2c(c1)n(C)c(=O)c(=O)n2C)c1cccc(C)c1	inconclusive: 28.2 µM [inhibitor, partial curve, poor fit]
O=C(COc1ccc(-c2nnc3n2CCCC3)cc1)N1CCN(c2ccccc2F)CC1	inconclusive: 39.8 µM [inhibitor, single point]
COc1ccc(NC(=O)C2CCN(S(=O)(=O)c3c(C)noc3/C=C/c3ccco3)CC2)cc1	inconclusive: 7.94 µM [inhibitor, single point]
COc1ccc(-c2cc(N3CCC(NC(=O)c4ccc(Cl)cc4OC)CC3)n[nH]2)cc1	inconclusive: 8.91 µM [inhibitor, full curve, poor fit]
Cc1ccc(NC(=O)Nc2cc3c(cc2N2CCCCC2)n(C)c(=O)n3C)cc1Cl	inconclusive: 10 µM [inhibitor, partial curve]
CCNc1cc(N2CCC(CCC(=O)Nc3cccc(OC)c3)CC2)ncn1	active: 7.94 µM
Cn1nc(C(=O)N2CCCN(S(=O)(=O)c3ccccc3)CCC(=O)NCC2)c2ccccc21	inconclusive: 1 µM [inhibitor, single point]
O=C1c2c(nc(COc3ccccc3)n2Cc2ccccc2)NCCN1Cc1cccc(Cl)c1	inconclusive: 39.8 µM [inhibitor, single point]
O=C(CN1C(=O)NC(c2ccccc2Cl)C2=C1COC2=O)Nc1cccc(F)c1 (stereo unspecified)	inconclusive: 31.6 µM [inhibitor, single point]
CCc1noc(-c2cccn3c(CNC(=O)c4ccc5ccccc5n4)nnc23)n1	inconclusive: 39.8 µM [inhibitor, single point]
CC1CCCCN1c1c(S(=O)(=O)c2ccc(Cl)cc2)cnc2ccccc12 (stereo unspecified)	inconclusive: 39.8 µM [inhibitor, single point]
Cc1ccc(C)c(C(=O)N2CCC(OC3CCN(C)CC3)CC2)c1	inconclusive: 7.08 µM [inhibitor, partial curve]
O=C(CC1CCCN(c2cnn(CC3CC3)c(=O)c2)C1)Nc1ccccc1F (stereo unspecified)	inactive
Oc1ccccc1-c1cc(-c2cccnc2)c2cncn2c1	inconclusive: 89.1 µM [inhibitor, single point]
Cc1ccc(OC2(C(=O)NCC3COc4ccccc4O3)CCNCC2)cc1 (stereo unspecified)	inactive
Cc1ccc(Cl)cc1-n1nnc(-c2nsc(NC(=O)c3ccccc3Cl)n2)c1C	inactive
CCn1cc2nc(SCc3cccc(C(F)(F)F)c3)n(Cc3ccc(Cl)cc3)c(=O)c2n1	inconclusive: 25.1 µM [inhibitor, partial curve, poor fit]
Cc1ccc(N(CC(=O)N2CCN(c3cccc(Cl)c3)CC2)S(=O)(=O)c2c(C)noc2C)cc1	inconclusive: 6.31 µM [inhibitor, full curve]
COc1cccc([S+](=O)([O-])N2CCn3ncc(C(=O)N4CCOCC4)c3C2)c1	inconclusive: 2.82 µM [inhibitor, full curve, poor fit]
Cn1cnc2cc(-c3ccc(N4CCOCC4)cc3)cc(C(=O)NCc3cccnc3)c21	inactive
CN1CCCC2(C1)CN(C)c1ccc(C(=O)NCCc3ccccc3)cc12 (stereo unspecified)	inactive

SMILES	Potency
CCN(Cc1noc(C2CCC2)n1)C(=O)C(C)Oc1ccc2ccccc2c1 (stereo unspecified)	inactive
CCOc1cccc2sc(N3CCN(C(=O)c4ccc5c(c4)CCCC5)CC3)nc12	inconclusive: 39.8 µM [inhibitor, partial curve, poor fit]
O=C(Nc1cccc(C(F)(F)F)c1)N[C@H]1CO[C@H]2[C@@H]1OC[C@@H]2n1nnnc1Oc1ccc(-n2ccnc2)cc1	inconclusive: 39.8 µM [inhibitor, single point]
Cc1cc(N2CCN(C)CC2)nc2ccc(NC(=O)c3ccc(C(C)(C)C)cc3)cc12	inconclusive: 39.8 µM [inhibitor, single point]
COCc1cccc(-c2n[nH]c3c2CC(=O)N(Cc2ccc(OC)cc2)C3)c1	inconclusive: 12.6 µM [inhibitor, single point]
Cn1cc(CN2C[C@H](C(=O)Nc3ccccc3)C[C@@H]2c2cccc(C(F)(F)F)c2)cn1	inconclusive: 39.8 µM [inhibitor, partial curve, poor fit]
O=C(c1cc(F)ccc1Cl)N1CCN(C(=O)c2nnn3c2COC(c2ccccc2)C3)CC1 (stereo unspecified)	inactive
CCc1nc(-c2ccc(OC3CCN(S(=O)(=O)Cc4ccccc4)C3)cc2)no1 (stereo unspecified)	inactive
Cc1ccc(-c2cccc(CN3CCCC(NC(=O)c4ccccc4C)C3)c2)cc1Cl (stereo unspecified)	inconclusive: 39.8 µM [inhibitor, single point]
O=C(NCc1ccccc1)c1nc(S(=O)(=O)Cc2ccc(F)cc2)ncc1Cl	inconclusive: 39.8 µM [inhibitor, single point]
CC(C)CCOc1ccc(C2N=C(N)Nc3nc4ccccc4n32)cc1 (stereo unspecified)	inconclusive: 8.91 µM [inhibitor, full curve]
COc1ccccc1C(=O)N1CC(Oc2ccc3c(c2)OCO3)C1	inactive
COc1ccc(S(=O)(=O)c2cnc3cc(OC)c(OC)cc3c2N2CCCC(C)C2)cc1 (stereo unspecified)	inconclusive: 39.8 µM [inhibitor, single point]
CC(=O)Oc1ccccc1C(=O)Nc1ccc2c(c1)CN(CCc1ccc(F)cc1)C(=O)C(C)O2 (stereo unspecified)	inconclusive: 28.2 µM [inhibitor, single point]
O=c1[nH]c(=O)n([C@H]2C[C@@H](O)[C@@H](CO)O2)cc1C(F)(F)F	inconclusive: 12.1 µM [inhibitor, partial curve, poor fit]
O=C(NCc1cccc(F)c1)N1CCc2nc3cc(-c4ccccc4)[nH]n3c(=O)c2C1	inconclusive: 11.2 µM [inhibitor, partial curve]
Cc1ncsc1C1N(C2CCN(S(=O)(=O)c3ccccc3)CC2)C(=O)C12CCCC2 (stereo unspecified)	inconclusive: 3.16 µM [inhibitor, single point]
Cc1ccccc1[C@H]1[C@@H](C(=O)N(C)Cc2cccnc2)C[C@@](C)(C(=O)O)N1C	inconclusive: 1.26 µM [inhibitor, full curve, poor fit]
O=C(NCc1ccc(Cl)cc1)c1ccc2nnc(Cc3ccc(Cl)cc3)n2c1	inconclusive: 12.6 µM [inhibitor, partial curve, poor fit]
